# Laboratory results: the supplement of paper PMC8728848
# The list shows a part of the results.
# B1: Threefoil (Haloarcula marismortui) (protein)
# chain: GSSHHHHHHHHHHSSGLVPRGSHMGDGYYKLVARHSGKALDVENASTSDGANVIQYSYSGGDNQQWRLVDLGDGYYKLVARHSGKALDVENASTSDGANVIQYSYSGGDNQQWRLVDLGDGYYKLVARHSGKALDVENASTSDGANVIQYSYSGGDNQQWRLVDL
# What was measured:
# Assay in all cases: glycan array binding signal (z-score within array); higher = stronger binding
# Details in all cases: glycan notation: IUPAC condensed, linker removed
# [1] = molecular target: Fuc(a1-3)[Gal3S(b1-4)]GlcNAc6S
# Outline: (§1)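 The binding signal is a Z-score computed within each array and averaged over linkers. Arrays of the same protein sequence at different concentrations or buffers were also averaged together. Data originate from 3228 arrays in the Consortium for Functional Glycomics database, kept only where the protein sequence was available.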
# [2] = molecular target: Fuc(a1-3)[GalNAc(b1-4)]GlcNAc
# Outline: as §1
# [3] = molecular target: Fuc(a1-3)[GalNAc(b1-4)]GlcNAc6S
# Outline: as §1
# [4] = molecular target: Fuc(a1-4)GlcNAc
# Outline: as §1
# [5] = molecular target: Fuc(b1-3)GlcNAc
# Outline: as §1
# [6] = molecular target: Gal(a1-2)Gal
# Outline: as §1
# [7] = molecular target: Gal(a1-3)Gal
# Outline: as §1
# [8] = molecular target: Gal(a1-3)Gal(b1-3)GlcNAc
# Outline: as §1
# [9] = molecular target: Gal(a1-3)Gal(b1-3)GlcNAc(b1-2)Man
# Outline: as §1
# [10] = molecular target: Gal(a1-3)Gal(b1-3)GlcNAc(b1-2)Man(a1-3)[Gal(a1-3)Gal(b1-3)GlcNAc(b1-2)Man(a1-6)]Man(b1-4)GlcNAc(b1-4)GlcNAc
# Outline: as §1
# [11] = molecular target: Gal(a1-3)Gal(b1-3)GlcNAc(b1-3)GalNAc
# Outline: as §1
# [12] = molecular target: Gal(a1-3)Gal(b1-3)GlcNAc(b1-6)GalNAc
# Outline: as §1
# [13] = molecular target: Gal(a1-3)Gal(b1-3)[Fuc(a1-4)]GlcNAc(b1-2)Man(a1-3)[Gal(a1-3)Gal(b1-3)[Fuc(a1-4)]GlcNAc(b1-2)Man(a1-6)]Man(b1-4)GlcNAc(b1-4)GlcNAc
# Outline: as §1
# [14] = molecular target: Gal(a1-3)Gal(b1-4)Glc
# Outline: as §1
# [15] = molecular target: Gal(a1-3)Gal(b1-4)GlcNAc
# Outline: as §1
# [16] = molecular target: Gal(a1-3)Gal(b1-4)GlcNAc(b1-2)Man
# Outline: as §1
# [17] = molecular target: Gal(a1-3)Gal(b1-4)GlcNAc(b1-2)Man(a1-3)[Gal(a1-3)Gal(b1-4)GlcNAc(b1-2)Man(a1-6)]Man(b1-4)GlcNAc(b1-4)GlcNAc
# Outline: as §1
# [18] = molecular target: Gal(a1-3)Gal(b1-4)GlcNAc(b1-3)GalNAc
# Outline: as §1
# [19] = molecular target: Gal(a1-3)Gal(b1-4)GlcNAc(b1-6)GalNAc
# Outline: as §1
# [20] = molecular target: Gal(a1-3)Gal(b1-4)[Fuc(a1-3)]GlcNAc
# Outline: as §1
# [21] = molecular target: Gal(a1-3)Gal(b1-4)[Fuc(a1-3)]GlcNAc(b1-2)Man(a1-3)[Gal(a1-3)Gal(b1-4)[Fuc(a1-3)]GlcNAc(b1-2)Man(a1-6)]Man(b1-4)GlcNAc(b1-4)GlcNAc
# Outline: as §1
# [22] = molecular target: Gal(a1-3)GalNAc
# Outline: as §1
# [23] = molecular target: Gal(a1-3)[Gal(a1-4)]Gal(b1-4)GlcNAc
# Outline: as §1
# [24] = molecular target: Gal(a1-4)Gal(b1-3)GlcNAc(b1-2)Man(a1-3)[Gal(a1-4)Gal(b1-3)GlcNAc(b1-2)Man(a1-6)]Man(b1-4)GlcNAc(b1-4)GlcNAc
# Outline: as §1
# [25] = molecular target: Gal(a1-4)Gal(b1-4)Glc
# Outline: as §1
# [26] = molecular target: Gal(a1-4)Gal(b1-4)GlcNAc
# Outline: as §1
# [27] = molecular target: Gal(a1-4)Gal(b1-4)GlcNAc(b1-2)Man(a1-3)[Gal(a1-4)Gal(b1-4)GlcNAc(b1-2)Man(a1-6)]Man(b1-4)GlcNAc(b1-4)GlcNAc
# Outline: as §1
# [28] = molecular target: Gal(a1-4)Gal(b1-4)GlcNAc(b1-3)Gal(b1-4)Glc
# Outline: as §1
# [29] = molecular target: Gal(a1-4)GlcNAc
# Outline: as §1
# [30] = molecular target: Gal(a1-6)Glc
# Outline: as §1
# [31] = molecular target: Gal(b1-2)Gal
# Outline: as §1
# [32] = molecular target: Gal(b1-3)Gal
# Outline: as §1
# [33] = molecular target: Gal(b1-3)Gal(b1-4)GlcNAc
# Outline: as §1
# [34] = molecular target: Gal(b1-3)GalNAc
# Outline: as §1
# [35] = molecular target: Gal(b1-3)GalNAc(a1-3)[Fuc(a1-2)]Gal(b1-4)Glc
# Outline: as §1
# [36] = molecular target: Gal(b1-3)GalNAc(a1-3)[Fuc(a1-2)]Gal(b1-4)GlcNAc
# Outline: as §1
# [37] = molecular target: Gal(b1-3)GalNAc(b1-3)Gal
# Outline: as §1
# [38] = molecular target: Gal(b1-3)GalNAc(b1-3)Gal(a1-4)Gal(b1-4)Glc
# Outline: as §1
# [39] = molecular target: Gal(b1-3)GalNAc(b1-4)Gal(b1-4)Glc
# Outline: as §1
# [40] = molecular target: Gal(b1-3)GalNAc(b1-4)[Neu5Ac(a2-3)]Gal(b1-4)Glc
# Outline: as §1
# [41] = molecular target: Gal(b1-3)GlcNAc
# Outline: as §1
# [42] = molecular target: Gal(b1-3)GlcNAc(a1-3)Gal(b1-4)GlcNAc
# Outline: as §1
# [43] = molecular target: Gal(b1-3)GlcNAc(a1-6)Gal(b1-4)GlcNAc
# Outline: as §1
# [44] = molecular target: Gal(b1-3)GlcNAc(b1-2)Man
# Outline: as §1
# [45] = molecular target: Gal(b1-3)GlcNAc(b1-2)Man(a1-3)[Gal(b1-3)GlcNAc(b1-2)Man(a1-6)]Man(b1-4)GlcNAc(b1-4)GlcNAc
# Outline: as §1
binder,measurement,setting,value
B1,glycan array binding signal (z-score),[1],-0.217
same,glycan array binding signal (z-score),[2],0.175
same,glycan array binding signal (z-score),[3],-0.318
same,glycan array binding signal (z-score),[4],-0.313
same,glycan array binding signal (z-score),[5],-0.177
same,glycan array binding signal (z-score),[6],-0.036
same,glycan array binding signal (z-score),[7],-0.117
same,glycan array binding signal (z-score),[8],-0.298
same,glycan array binding signal (z-score),[9],-0.276
same,glycan array binding signal (z-score),[10],-0.157
same,glycan array binding signal (z-score),[11],-0.32
same,glycan array binding signal (z-score),[12],-0.205
same,glycan array binding signal (z-score),[13],-0.217
same,glycan array binding signal (z-score),[14],-0.17
same,glycan array binding signal (z-score),[15],-0.158
same,glycan array binding signal (z-score),[16],-0.182
same,glycan array binding signal (z-score),[17],0.282
same,glycan array binding signal (z-score),[18],-0.279
same,glycan array binding signal (z-score),[19],-0.221
same,glycan array binding signal (z-score),[20],-0.292
same,glycan array binding signal (z-score),[21],-0.059
same,glycan array binding signal (z-score),[22],-0.135
same,glycan array binding signal (z-score),[23],-0.099
same,glycan array binding signal (z-score),[24],-0.07
same,glycan array binding signal (z-score),[25],0.139
same,glycan array binding signal (z-score),[26],-0.041
same,glycan array binding signal (z-score),[27],-0.061
same,glycan array binding signal (z-score),[28],-0.193
same,glycan array binding signal (z-score),[29],0.051
same,glycan array binding signal (z-score),[30],-0.125
same,glycan array binding signal (z-score),[31],-0.244
same,glycan array binding signal (z-score),[32],-0.141
same,glycan array binding signal (z-score),[33],-0.177
same,glycan array binding signal (z-score),[34],-0.154
same,glycan array binding signal (z-score),[35],-0.066
same,glycan array binding signal (z-score),[36],0.011
same,glycan array binding signal (z-score),[37],-0.114
same,glycan array binding signal (z-score),[38],-0.162
same,glycan array binding signal (z-score),[39],-0.114
same,glycan array binding signal (z-score),[40],-0.035
same,glycan array binding signal (z-score),[41],-0.187
same,glycan array binding signal (z-score),[42],-0.195
same,glycan array binding signal (z-score),[43],0.054
same,glycan array binding signal (z-score),[44],-0.06
same,glycan array binding signal (z-score),[45],-0.064
